In the antibiotic and cytotoxicity screens of Wong et al. (2023):
The list shows a part of the results.

How the values were obtained:
HSkMC = human skeletal muscle cells; test: cytotoxicity call (relative viability < 0.9); conditions: 10 µM
HepG2 = test: cytotoxicity call (relative viability < 0.9); conditions: 10 µM
S. aureus RN4220 = test: growth inhibition call (relative growth <= 0.2); conditions: 50 µM

## Cc1noc(C)c1NC(=O)Nc1cccc2c1O[C@H](CN(C)Cc1ccc(Oc3ccccc3)cc1)[C@H](C)CN([C@H](C)CO)C2=O
HSkMC
  cytotoxicity call: inactive
HepG2
  cytotoxicity call: inactive
S. aureus RN4220
  growth inhibition call: inactive

## C[C@H](CO)N1C[C@H](C)[C@@H](CN(C)C(=O)Nc2ccc(F)cc2)OCCCC[C@H](C)Oc2ccc(NC(=O)Nc3ccc(F)cc3)cc2C1=O
HSkMC
  cytotoxicity call: inactive
HepG2
  cytotoxicity call: inactive
S. aureus RN4220
  growth inhibition call: inactive

## COCCNC(=O)CCC(=O)NN=c1nc2ccccc2c2nc(C)[nH]n12
HSkMC
  cytotoxicity call: inactive
HepG2
  cytotoxicity call: inactive
S. aureus RN4220
  growth inhibition call: inactive

## C[C@@H]1CN([C@@H](C)CO)C(=O)c2cc(NC(=O)Nc3cccc4ccccc34)ccc2O[C@@H](C)CCCCO[C@H]1CN(C)C(=O)Nc1ccccc1
HSkMC
  cytotoxicity call: inactive
HepG2
  cytotoxicity call: inactive
S. aureus RN4220
  growth inhibition call: inactive

## C[C@@H]1CN([C@@H](C)CO)C(=O)c2cc(NS(=O)(=O)c3ccccc3)ccc2O[C@H]1CN(C)Cc1ccncc1
HSkMC
  cytotoxicity call: inactive
HepG2
  cytotoxicity call: inactive
S. aureus RN4220
  growth inhibition call: inactive

## O=C(C[C@@H]1CC[C@@H]2[C@H](COC[C@@H](O)CN2S(=O)(=O)c2ccc(F)cc2)O1)N[C@H]1CCN(Cc2ccccc2)C1
HSkMC
  cytotoxicity call: inactive
HepG2
  cytotoxicity call: inactive
S. aureus RN4220
  growth inhibition call: inactive

## COc1ccc(S(=O)(=O)Nc2ccc3c(c2)CC(=O)N([C@@H](C)CO)C[C@@H](C)[C@H](CN(C)C(=O)NC(C)C)O3)cc1
HSkMC
  cytotoxicity call: inactive
HepG2
  cytotoxicity call: inactive
S. aureus RN4220
  growth inhibition call: inactive

## C[C@@H]1CN([C@H](C)CO)C(=O)Cc2cc(NC(=O)Nc3ccccc3)ccc2O[C@H]1CN(C)C(=O)Nc1ccc(C(F)(F)F)cc1
HSkMC
  cytotoxicity call: inactive
HepG2
  cytotoxicity call: inactive
S. aureus RN4220
  growth inhibition call: inactive

## O=c1c2cc(O)c(O)cc2oc2cc(O)c([C@H]3O[C@H](CO)[C@H](O)[C@@H](O)[C@H]3O)c(O)c12
HSkMC
  cytotoxicity call: inactive
HepG2
  cytotoxicity call: inactive
S. aureus RN4220
  growth inhibition call: inactive

## COCC#Cc1ccc2c(c1)O[C@H](CN(C)C(=O)c1ccccc1F)[C@H](C)CN([C@H](C)CO)S2(=O)=O
HSkMC
  cytotoxicity call: inactive
HepG2
  cytotoxicity call: inactive
S. aureus RN4220
  growth inhibition call: inactive

## C[C@H]1CN([C@@H](C)CO)C(=O)c2cccc(NC(=O)c3cnccn3)c2O[C@@H]1CN(C)S(=O)(=O)c1cccs1
HSkMC
  cytotoxicity call: inactive
HepG2
  cytotoxicity call: inactive
S. aureus RN4220
  growth inhibition call: inactive

## C[C@@H]1CN([C@@H](C)CO)C(=O)c2cc(NC(=O)Cc3cn(C)c4ccccc34)ccc2O[C@@H]1CN(C)Cc1ccc(-c2ccccc2)cc1
HSkMC
  cytotoxicity call: inactive
HepG2
  cytotoxicity call: active
S. aureus RN4220
  growth inhibition call: inactive

## CC(=O)N1CCC2(CCCN2)CC1
HSkMC
  cytotoxicity call: inactive
HepG2
  cytotoxicity call: inactive
S. aureus RN4220
  growth inhibition call: inactive

## C[C@@H]1CN([C@@H](C)CO)C(=O)Cc2cc(NC(=O)Cn3cnnn3)ccc2O[C@H]1CN(C)Cc1ccc(C(F)(F)F)cc1
HSkMC
  cytotoxicity call: inactive
HepG2
  cytotoxicity call: inactive
S. aureus RN4220
  growth inhibition call: inactive

## C[C@H](CO)N1C[C@H](C)[C@@H](CN(C)C(=O)Nc2ccc3c(c2)OCO3)Oc2ncc(-c3cncnc3)cc2C1=O
HSkMC
  cytotoxicity call: inactive
HepG2
  cytotoxicity call: active
S. aureus RN4220
  growth inhibition call: inactive

## COc1c2ccoc2nc2c(OC)c(OCC(O)C(C)(C)O)ccc12 (stereo not drawn)
HSkMC
  cytotoxicity call: inactive
HepG2
  cytotoxicity call: active
S. aureus RN4220
  growth inhibition call: inactive

## C[C@H](CO)N1C[C@H](C)[C@H](CN(C)C(=O)Nc2ccc3c(c2)OCO3)OCCCC[C@H](C)Oc2ccc(NC(=O)NC3CCCCC3)cc2C1=O
HSkMC
  cytotoxicity call: inactive
HepG2
  cytotoxicity call: inactive
S. aureus RN4220
  growth inhibition call: inactive

## C[C@@H]1CCCCO[C@H](CN(C)C(=O)CCCN(C)C)[C@@H](C)CN([C@@H](C)CO)C(=O)c2cc(NC(=O)Nc3ccc(F)cc3)ccc2O1
HSkMC
  cytotoxicity call: inactive
HepG2
  cytotoxicity call: inactive
S. aureus RN4220
  growth inhibition call: inactive

## Cc1cnc2c(c1NCCN(C)C)c(=O)n(C)c(=O)n2C
HSkMC
  cytotoxicity call: inactive
HepG2
  cytotoxicity call: inactive
S. aureus RN4220
  growth inhibition call: inactive

## Cc1noc(C)c1NC(=O)Nc1ccc2c(c1)C(=O)N([C@@H](C)CO)C[C@H](C)[C@@H](CN(C)Cc1ccc(C(F)(F)F)cc1)O2
HSkMC
  cytotoxicity call: inactive
HepG2
  cytotoxicity call: inactive
S. aureus RN4220
  growth inhibition call: inactive

## COc1cccc(NC(=O)N(C)C[C@H]2Oc3ncc(C#Cc4cccnc4)cc3C(=O)N([C@@H](C)CO)C[C@@H]2C)c1
HSkMC
  cytotoxicity call: inactive
HepG2
  cytotoxicity call: inactive
S. aureus RN4220
  growth inhibition call: inactive

## COCC(=O)Nc1ccc2c(c1)[C@H]1C[C@H](CC(=O)N3CCOCC3)O[C@H](CO)[C@H]1O2
HSkMC
  cytotoxicity call: inactive
HepG2
  cytotoxicity call: inactive
S. aureus RN4220
  growth inhibition call: inactive

## COc1ccc(S(=O)(=O)N(C)C[C@@H]2Oc3ccc(NS(=O)(=O)c4cn(C)cn4)cc3CC(=O)N([C@H](C)CO)C[C@H]2C)cc1
HSkMC
  cytotoxicity call: inactive
HepG2
  cytotoxicity call: inactive
S. aureus RN4220
  growth inhibition call: inactive

## C[C@H]1CN([C@@H](C)CO)C(=O)c2cc(NS(=O)(=O)c3ccccc3)ccc2O[C@H]1CN(C)S(=O)(=O)c1cn(C)cn1
HSkMC
  cytotoxicity call: inactive
HepG2
  cytotoxicity call: inactive
S. aureus RN4220
  growth inhibition call: inactive

## O=C(c1ccc(Cl)cc1)n1c2ccccc2c2ccccc21
HSkMC
  cytotoxicity call: inactive
HepG2
  cytotoxicity call: active
S. aureus RN4220
  growth inhibition call: inactive

## C[C@@H]1CCCCO[C@@H](CN(C)C(=O)Nc2ccc(F)cc2)[C@@H](C)CN([C@@H](C)CO)C(=O)c2cc(NC(=O)NC3CCCCC3)ccc2O1
HSkMC
  cytotoxicity call: inactive
HepG2
  cytotoxicity call: active
S. aureus RN4220
  growth inhibition call: inactive
